Data on 3 molecules can be found in PMC11796321, “Interleukin‐11 receptor is an alternative α‐receptor for interleukin‐6 and the chimeric cytokine IC7” (The Febs Journal, 2024).

The target in test [1] is T1, sgp130Fc (fusion protein of soluble hgp130 to the Fc-part of an IgG antibody) (human, UniProt P40189 23-619).
T1 sequence (looked up): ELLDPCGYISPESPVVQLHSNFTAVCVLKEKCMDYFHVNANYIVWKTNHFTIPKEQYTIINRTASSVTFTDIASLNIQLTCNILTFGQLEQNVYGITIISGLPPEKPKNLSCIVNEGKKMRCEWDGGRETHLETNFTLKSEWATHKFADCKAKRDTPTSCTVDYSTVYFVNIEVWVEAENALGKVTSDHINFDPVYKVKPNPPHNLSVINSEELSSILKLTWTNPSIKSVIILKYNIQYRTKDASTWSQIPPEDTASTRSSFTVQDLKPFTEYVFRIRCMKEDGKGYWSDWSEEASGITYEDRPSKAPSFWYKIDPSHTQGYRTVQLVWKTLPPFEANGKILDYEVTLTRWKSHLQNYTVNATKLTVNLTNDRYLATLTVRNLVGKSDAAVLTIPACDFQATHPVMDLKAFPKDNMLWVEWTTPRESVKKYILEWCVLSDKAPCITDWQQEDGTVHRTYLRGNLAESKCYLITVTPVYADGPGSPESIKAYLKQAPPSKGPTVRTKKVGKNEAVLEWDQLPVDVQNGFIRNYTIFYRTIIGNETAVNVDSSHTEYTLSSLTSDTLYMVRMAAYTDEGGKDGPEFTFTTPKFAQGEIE
Kind of test: cell-based or functional assay.

For test [2], the target named is T1, sgp130Fc (fusion protein of soluble …). The test is described as follows: SPR; Biacore X100, Protein A sensor chip; sgp130Fc captured via its Fc (200-300 RU per cycle); hyper-cytokines injected 30 uL/min, 120 s, dissociation 300 s (200-0.20 nM cHIL-6, 25-0.05 nM HIL-6, 50-0.62 nM HIL-11); 1:1 binding model. Conditions: both partners purified. Background: SPR reads the build-up and loss of mass on a sensor chip optically.

For test [3], the target named is T2, recombinant his-tagged soluble human IL-11R (human, UniProt Q14626 24-370).
T2 construct: soluble human IL-11 α-receptor; In functional rows this id also stands for hIL-11R expressed on Ba/F3 cells (whole receptor); the readout says so; also called sIL-11R; shIL-11R; source: bought: R&D Systems (cat no. 8895-MR)
T2 sequence (looked up): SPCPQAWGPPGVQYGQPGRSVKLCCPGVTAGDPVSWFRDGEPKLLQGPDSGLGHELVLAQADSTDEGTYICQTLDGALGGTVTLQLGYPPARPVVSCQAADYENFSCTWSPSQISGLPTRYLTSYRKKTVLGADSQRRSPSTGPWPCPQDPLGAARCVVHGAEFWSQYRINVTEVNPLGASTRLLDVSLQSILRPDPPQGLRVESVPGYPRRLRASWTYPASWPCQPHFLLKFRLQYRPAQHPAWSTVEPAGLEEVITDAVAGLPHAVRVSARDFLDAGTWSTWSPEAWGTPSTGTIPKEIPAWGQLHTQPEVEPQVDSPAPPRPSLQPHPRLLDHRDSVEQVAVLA
The test is described as follows: SPR; Biacore X100, multi-cycle, NTA sensor chip; his-tagged soluble hIL-6R or hIL-11R immobilised (100-250 RU per cycle); cytokines injected 133.33 to 0.183 nM, 30 uL/min, 180 s, dissociation 800 s; 25 °C, PBS with 0.05% P20 and 50 uM EDTA; two-state reaction fit. Conditions: both partners purified.

In test [4] the target is T2, recombinant his-tagged soluble human …. Described as above. Conditions: both partners purified. This is another data set of the same source.

Usually Kd stands for a measure of binding affinity in units of concentration. In general, koff refers to a measure of how fast the partners let go of each other. Low readings indicate slow dissociation, high ones fast dissociation. One may read the kon as the rate constant with which the complex forms.

B1: Hyper IL-6 (fusion protein of human sIL-6R and human IL-6), Twin-Strep-tagged (other)
chain: LAPRRCPAQEVARGVLTSLPGDSVTLTCPGVEPEDNATVHWVLRKPAAGSHPSRWAGMGRRLLLRSVQLHDSGNYSCYRAGRPAGTVHLLVDVPPEEPQLSCFRKSPLSNVVCEWGPRSTPSLTTKAVLLVRKFQNSPAEDFQEPCQYSQESQKFSCQLAVPEGDSSFYIVSMCVASSVGSKFSKTQTFQGCGILQPDPPANITVTAVARNPRWLSVTWQDPHSWNSSFYRLRFELRYRAERSKTFTTWMVKDLQHHCVIHDAWSGLRHVVQLRAQEEFGQGEWSEWSPEAMGTPWTESRSPPAGGGSGG[sequence of about 200 residues omitted]
Take B1: the “EC50 of proliferation of Ba/F3-hgp130 cells (hgp130 on cells), 72 h” value in test [1] amounted to 0.0466 nM. In test [2], binding was put at a Kd of 0.244 nM, the dissociation rate constant (koff) came out at 0.000347 s⁻¹ and the on-rate (kon) was 1.48e+06 M⁻¹ s⁻¹.

B2: chimeric Hyper-cytokine IL-6/sIL-11R (cHIL-6), Twin-Strep-tagged (other)
chain: SSPCPQAWGPPGVQYGQPGRSVKLCCPGVTAGDPVSWFRDGEPKLLQGPDSGLGHELVLAQADSTDEGTYICQTLDGALGGTVTLQLGYPPARPVVSCQAADYENFSCTWSPSQISGLPTRYLTSYRKKTVLGADSQRRSPSTGPWPCPQDPLGAARCVVHGAEFWSQYRINVTEVNPLGASTRLLDVSLQSILRPDPPQGLRVESVPGYPRRLRASWTYPASWPCQPHFLLKFRLQYRPAQHPAWSTVEPAGLEEVITDAVAGLPHAVRVSARDFLDAGTWSTWSPEAWGTPSTGGGSGG[sequence of about 200 residues omitted]
As to B2, the “EC50 of proliferation of Ba/F3-hgp130 cells (hgp130 on cells), 72 h” value in test [1] was 0.194 nM. In test [2], this molecule displayed a Kd of 1.24 nM, a koff of 0.000114 s⁻¹ and a kon of 92300 M⁻¹ s⁻¹.

B3: Twin-strep-tagged human IL-6 (ligand)
chain: not shown
notes: human interleukin 6 (IL-6); Secreted into the culture supernatant; also called hIL-6ts; hIL-6
With B3, in test [3], the Kd worked out at 22.6 nM. In addition, in test [4], the Kd worked out at 22.3 nM; the “kd1 (two-state fit, first step)” value is 0.0129 s⁻¹; the “kd2 (two-state fit, second step)” value was 0.000857 s⁻¹.
